Measurements from patent US20140271457A1 (AbbVie / Abbott, published 2014).

Target: Recombinant Human IL-13 (human, UniProt P35225 part only, limits assumed)
Assay: cell-based or functional assay

Chain of UniProt P35225 (P35225 35-146 limits assumed): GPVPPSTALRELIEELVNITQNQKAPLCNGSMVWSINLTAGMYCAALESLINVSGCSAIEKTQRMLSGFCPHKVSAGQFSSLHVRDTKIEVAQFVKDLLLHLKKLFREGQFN

Row | Binder | IL-13 Neutralization Assay IC50
1 | DVD3144 (bispecific antibody, human IgG1, kappa) heavy: EVQLVESGGGLVQPGGSLRLSCAASGFTFSNYGVTWVRQAPGKGLEWVSMIWADGSTHYASSVKGRFTISRDNSKNTLYLQMNSLRAEDTAVYYCAREWQHGPVAYWGQGTLVTVSSASTKGPEVQLVQSGAEVKKPGASVKVSCKASGYTFTSYWMHWVRQAPGQGLEWIGNINPKGGSNIYNEKFQGRVTMTRDTSISTAYMELSRLRSDDTAVYYCARLDYFGDSFDLWGQGTTVTVSS[here human IgG1 constant region without letters] light: DIQMTQSPSSLSASVGDRVTITCRASQLVSSAVAWYQQKPGKAPKLLIYWASARHTGVPSRFSGSGSGTDFTLTISSLQPEDFATYYCQQHYKTPFTFGQGTKLEIKRTVAAPDIQMTQSPSSLSASVGDRVTITCRASQGIRNYLNWYQQKPGKAPKLLIYYASNLEVGVPSRFSGSGSGTDYTLTISSLQPEDFATYYCQQDNRFPYTFGGGTKVEIKRTVAAPSVFIFPPSDEQLKSGTASVVCLLNNFYPREAKVQWKVDNALQSGNSQESVTEQDSKDSTYSLSSTLTLSKADYEKHKVYACEVTHQGLSSPVTKSFNRGEC | 0.209 nM
2 | DVD3154 (bispecific antibody, human IgG1, kappa) heavy: EVQLVESGGGLVQPGGSLRLSCAASGFTFSNYGVEWVRQAPGKGLEWVSGIWADGSTHYADTVKSRFTISRDNSKNTLYLQMNSLRAEDTAVYYCAREWQHGPVAYWGQGTLVTVSSASTKGPEVQLVQSGAEVKKPGASVKVSCKASGYTFTSYWMHWVRQAPGQGLEWIGNINPKGGSNIYNEKFQGRVTMTRDTSISTAYMELSRLRSDDTAVYYCARLDYFGDSFDLWGQGTTVTVSS[here human IgG1 constant region without letters] light: DIQMTQSPSSLSASVGDRVTITCKASQLVSSAVAWYQQKPGKAPKLLIYWASTLHTGVPSRFSGSGSGTDFTLTISSLQPEDFATYYCQQHYRTPFTFGQGTKLEIKRTVAAPDIQMTQSPSSLSASVGDRVTITCRASQGIRNYLNWYQQKPGKAPKLLIYYASNLEVGVPSRFSGSGSGTDYTLTISSLQPEDFATYYCQQDNRFPYTFGGGTKVEIKRTVAAPSVFIFPPSDEQLKSGTASVVCLLNNFYPREAKVQWKVDNALQSGNSQESVTEQDSKDSTYSLSSTLTLSKADYEKHKVYACEVTHQGLSSPVTKSFNRGEC | 0.175 nM
3 | DVD3146 (bispecific antibody, human IgG1, kappa) heavy: EVQLVESGGGLVQPGGSLRLSCAASGFTFSNYGVTWVRQAPGKGLEWVSMIWADGSTHYASSVKGRFTISRDNSKNTLYLQMNSLRAEDTAVYYCAREWQHGPVAYWGQGTLVTVSSASTKGPEVQLVQSGAEVKKPGASVKVSCKASGYTFTSYWMHWVRQAPGQGLEWIGNINPKGGSNIYNEKFQGRVTMTRDTSISTAYMELSRLRSDDTAVYYCARLDYFGDSFDLWGQGTTVTVSS[here human IgG1 constant region without letters] light: DIQMTQSPSSLSASVGDRVTITCRASQLVSSAVAWYQQKPGKAPKLLIYWASARHTGVPSRFSGSGSGTDFTLTISSLQPEDFATYYCQQHYKTPFTFGQGTKLEIKRTVAAPSVFIFPPDIQMTQSPSSLSASVGDRVTITCRASQGIRNYLNWYQQKPGKAPKLLIYYASNLEVGVPSRFSGSGSGTDYTLTISSLQPEDFATYYCQQDNRFPYTFGGGTKVEIKRTVAAPSVFIFPPSDEQLKSGTASVVCLLNNFYPREAKVQWKVDNALQSGNSQESVTEQDSKDSTYSLSSTLTLSKADYEKHKVYACEVTHQGLSSPVTKSFNRGEC | 0.051 nM
4 | DVD3156 (bispecific antibody, human IgG1, kappa) heavy: EVQLVESGGGLVQPGGSLRLSCAASGFTFSNYGVEWVRQAPGKGLEWVSGIWADGSTHYADTVKSRFTISRDNSKNTLYLQMNSLRAEDTAVYYCAREWQHGPVAYWGQGTLVTVSSASTKGPEVQLVQSGAEVKKPGASVKVSCKASGYTFTSYWMHWVRQAPGQGLEWIGNINPKGGSNIYNEKFQGRVTMTRDTSISTAYMELSRLRSDDTAVYYCARLDYFGDSFDLWGQGTTVTVSS[here human IgG1 constant region without letters] light: DIQMTQSPSSLSASVGDRVTITCKASQLVSSAVAWYQQKPGKAPKLLIYWASTLHTGVPSRFSGSGSGTDFTLTISSLQPEDFATYYCQQHYRTPFTFGQGTKLEIKRTVAAPSVFIFPPDIQMTQSPSSLSASVGDRVTITCRASQGIRNYLNWYQQKPGKAPKLLIYYASNLEVGVPSRFSGSGSGTDYTLTISSLQPEDFATYYCQQDNRFPYTFGGGTKVEIKRTVAAPSVFIFPPSDEQLKSGTASVVCLLNNFYPREAKVQWKVDNALQSGNSQESVTEQDSKDSTYSLSSTLTLSKADYEKHKVYACEVTHQGLSSPVTKSFNRGEC | 0.062 nM
5 | DVD3147 (bispecific antibody, human IgG1, kappa) heavy: EVQLVESGGGLVQPGGSLRLSCAASGFTFSNYGVTWVRQAPGKGLEWVSMIWADGSTHYASSVKGRFTISRDNSKNTLYLQMNSLRAEDTAVYYCAREWQHGPVAYWGQGTLVTVSSASTKGPSVFPLAPEVQLVQSGAEVKKPGASVKVSCKASGYTFTSYWMHWVRQAPGQGLEWIGNINPKGGSNIYNEKFQGRVTMTRDTSISTAYMELSRLRSDDTAVYYCARLDYFGDSFDLWGQGTTVTVSS[here human IgG1 constant region without letters] light: DIQMTQSPSSLSASVGDRVTITCRASQLVSSAVAWYQQKPGKAPKLLIYWASARHTGVPSRFSGSGSGTDFTLTISSLQPEDFATYYCQQHYKTPFTFGQGTKLEIKRTVAAPDIQMTQSPSSLSASVGDRVTITCRASQGIRNYLNWYQQKPGKAPKLLIYYASNLEVGVPSRFSGSGSGTDYTLTISSLQPEDFATYYCQQDNRFPYTFGGGTKVEIKRTVAAPSVFIFPPSDEQLKSGTASVVCLLNNFYPREAKVQWKVDNALQSGNSQESVTEQDSKDSTYSLSSTLTLSKADYEKHKVYACEVTHQGLSSPVTKSFNRGEC | 0.745 nM
6 | DVD3157 (bispecific antibody, human IgG1, kappa) heavy: EVQLVESGGGLVQPGGSLRLSCAASGFTFSNYGVEWVRQAPGKGLEWVSGIWADGSTHYADTVKSRFTISRDNSKNTLYLQMNSLRAEDTAVYYCAREWQHGPVAYWGQGTLVTVSSASTKGPSVFPLAPEVQLVQSGAEVKKPGASVKVSCKASGYTFTSYWMHWVRQAPGQGLEWIGNINPKGGSNIYNEKFQGRVTMTRDTSISTAYMELSRLRSDDTAVYYCARLDYFGDSFDLWGQGTTVTVSS[here human IgG1 constant region without letters] light: DIQMTQSPSSLSASVGDRVTITCKASQLVSSAVAWYQQKPGKAPKLLIYWASTLHTGVPSRFSGSGSGTDFTLTISSLQPEDFATYYCQQHYRTPFTFGQGTKLEIKRTVAAPDIQMTQSPSSLSASVGDRVTITCRASQGIRNYLNWYQQKPGKAPKLLIYYASNLEVGVPSRFSGSGSGTDYTLTISSLQPEDFATYYCQQDNRFPYTFGGGTKVEIKRTVAAPSVFIFPPSDEQLKSGTASVVCLLNNFYPREAKVQWKVDNALQSGNSQESVTEQDSKDSTYSLSSTLTLSKADYEKHKVYACEVTHQGLSSPVTKSFNRGEC | 0.035 nM
